{
  "source": "PubChem BioAssay AID624173",
  "about": "(National Center for Advancing Translational Sciences (NCATS), 2012)",
  "note": "The campaign covered roughly 410,000 compounds. About 490 (0.12%) were called active. Inconclusive means that the source gave no clear call. Such entries were picked first, then a sample of the others. The call rests on the fitted dose curve; in most records, active means well fitted inhibition curve with a large enough effect; inconclusive means small, poorly fitted or top-dose-only effect; inactive means flat fitted curve, though single readings scatter. Where the call is inconclusive, the potency comes from a doubtful curve fit. On the % scale 0 is the no-effect control and ±100 the full control effect; potency means the concentration at half of the fitted maximal effect; tags describe the fitted curve by direction and shape.",
  "data": [
    {"target": "pyruvate kinase (Trypanosoma brucei) (UniProt Q57TT1)", "test": "qHTS of Trypanosoma Brucei Inhibitors; further: nearly all actives have a fitted effect of over 50% in size", "conditions": "TbPYK enzyme, Kinase-Glo Plus ATP luminescence, 45 min; series mostly up to 76.8 µM", "procedure,_shortened": "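ADP (130 uM final) triggers the TbPYK reaction after compound addition; incubation is 45 min at room temperature. Kinase-Glo Plus is then added and luminescence imaged. Normalized data are fitted to concentration-effect curves.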", "values": [
      {"smiles": "Cc1cccn2c(Nc3ccccc3)c(-c3cccs3)nc12", "Potency": "inactive"},
      {"smiles": "Cc1ccc(-n2nc(C)c3c2OC(N)=C(C#N)C3c2ccoc2)cc1", "note": "(stereo not given)", "Potency": "inactive"},
      {"smiles": "CCOC(=O)c1ccc(NC(=O)CN2C(=O)C3C4C=CC(C4)C3C2=O)cc1", "note": "(stereo not given)", "Potency": "inconclusive: 50.1 µM [inhibitor, single point]"},
      {"smiles": "COc1ccc(/C=N/Nc2ncccc2[N+](=O)[O-])c(OC)c1", "Potency": "inconclusive: 31.6 µM [inhibitor, partial curve, poor fit]"},
      {"smiles": "CCC(=O)NCC(=O)OCC(=O)c1ccccc1", "Potency": "inconclusive: 28.2 µM [inhibitor, single point]"},
      {"smiles": "Cc1ccc(-c2nnc(SCC(=O)c3ccc(Cl)cc3)n2-c2ccccc2)cc1", "Potency": "inactive"},
      {"smiles": "O=C(O)CCn1cc(C=C2C(=O)NC(=O)NC2=O)c(-c2cc3ccccc3oc2=O)n1", "Potency": "inconclusive: 20 µM [inhibitor, partial curve, poor fit]"},
      {"smiles": "CCCc1cc(N2CCN(c3ccccc3)CC2)n2cnnc2n1", "Potency": "inactive"},
      {"smiles": "OCC1(CCOc2ccccc2)CCN(CCCn2cccn2)CC1", "Potency": "inactive"},
      {"smiles": "CN1CCc2c1nc1ccccc1c2N=C1CCCN1Cc1ccccc1", "Potency": "inactive"},
      {"smiles": "CCN=C1NN=C(c2c[nH]c3ccccc23)CS1", "Potency": "inconclusive: 15.8 µM [inhibitor, partial curve]"},
      {"smiles": "CCOC(=O)c1cnc(SSc2ncc(C(=O)OCC)c(N)n2)nc1N", "Potency": "inconclusive: 25.1 µM [inhibitor, single point]"},
      {"smiles": "COc1ccc(OC)c(/C=N/NC(=O)c2cnccn2)c1", "Potency": "inactive"},
      {"smiles": "CC(=O)Nc1ccc2c(c1)Cc1cc(N3C(=O)C=CC3=O)ccc1-2", "Potency": "inconclusive: 20 µM [inhibitor, partial curve, poor fit]"},
      {"smiles": "Cc1ccc(Cn2c(C)nc3c(c2=O)c2nc4ccccc4nc2n3Cc2ccco2)cc1", "Potency": "inconclusive: 31.6 µM [inhibitor, partial curve]"},
      {"smiles": "CCN(CC(=O)Nc1ccc(OC)cc1)C(=O)c1ccccc1Sc1ccccc1C#N", "Potency": "inactive"},
      {"smiles": "CC1=Nc2ccccc2N=C(N)C1c1ccccc1", "note": "(stereo not given)", "Potency": "inactive"},
      {"smiles": "CC(=O)Nc1c(C)cc(OCC(=O)O)cc1C", "Potency": "inconclusive: 39.8 µM [inhibitor, partial curve, poor fit]"},
      {"smiles": "O=C(O)CCCN1C(=O)/C(=C\\c2ccco2)SC1=S", "Potency": "inconclusive: 35.5 µM [inhibitor, single point]"},
      {"smiles": "CC(=O)Sc1nc(-c2ccccc2)[nH]c1S(=O)(=O)c1ccc(C)cc1", "Potency": "inconclusive: 5.62 µM [inhibitor, partial curve, poor fit]"},
      {"smiles": "CC(=NNC(=S)N1CCN(c2ccccn2)CC1)c1nccs1", "Potency": "inconclusive: 5.62 µM [inhibitor, partial curve, poor fit]"},
      {"smiles": "C=CCn1c(CCC(O)COCCCCC)n[nH]c1=S", "note": "(stereo not given)", "Potency": "inconclusive: 31.6 µM [inhibitor, partial curve, poor fit]"},
      {"smiles": "COc1ccc(N=Cc2sc(O)c3ccccc23)cc1", "Potency": "inactive"},
      {"smiles": "Cc1ccc(CNC(=O)c2oc3ccc(S(=O)(=O)N4CCOCC4)cc3c2C)cc1", "Potency": "inconclusive: 50.1 µM [inhibitor, single point]"},
      {"smiles": "CCN(CC)CCSc1c(C(C)C)cnc2c1c(=O)n(C)c(=O)n2C", "Potency": "inconclusive: 7.08 µM [inhibitor, partial curve]"},
      {"smiles": "Cc1ccc(C(=O)Oc2csc(=S)n2C(=O)c2ccc(C)cc2)cc1", "Potency": "inconclusive: 50.1 µM [inhibitor, single point]"},
      {"smiles": "CC(C)n1c(O)c(C2c3cc(Cl)ccc3Oc3[nH]c(=O)n(C(C)C)c(=O)c32)c(=O)[nH]c1=O", "note": "(stereo not given)", "Potency": "inconclusive: 35.5 µM [inhibitor, partial curve, poor fit]"},
      {"smiles": "COC(=O)c1c(-c2cccnc2)csc1NC(=O)c1ccc2c(c1)OCO2", "Potency": "inconclusive: 11.2 µM [inhibitor, single point]"},
      {"smiles": "CCCCn1nnnc1C1(C)CCC(=O)N1Cc1ccc(C)cc1", "note": "(stereo not given)", "Potency": "inactive"},
      {"smiles": "Cc1ccc(C=C2C(=O)c3ccccc3C2=O)o1", "Potency": "inconclusive: 20 µM [inhibitor, partial curve]"},
      {"smiles": "O=C(NCc1ccco1)c1cc(-c2cccc(Cl)c2)on1", "Potency": "inactive"},
      {"smiles": "COc1ccc(N2CCN(C(=O)c3cccn3-c3nnc(N4CCCC4)s3)CC2)cc1", "activity, negative = inhibition": "inactive: -14.4% [at 15.4 µM]"},
      {"smiles": "CCC1CCCCN1C(=S)NC(=O)c1cccc([N+](=O)[O-])c1", "note": "(stereo not given)", "Potency": "inconclusive: 25.1 µM [inhibitor, partial curve, poor fit]"},
      {"smiles": "CCc1c(-c2n[nH]c(=S)n2Cc2ccccc2)csc1C", "Potency": "inconclusive: 5.62 µM [inhibitor, partial curve, poor fit]"},
      {"smiles": "S=C(NCCc1ccccc1)Nc1ccccn1", "Potency": "inconclusive: 25.1 µM [inhibitor, partial curve, poor fit]"},
      {"smiles": "COC(=O)CN1C(=O)[C@H]2[C@@H](c3ccc(C)o3)N3C(=O)CN(Cc4ccc(-c5ccccc5)cc4)C(=O)[C@@]3(C)[C@H]2C1=O", "Potency": "inconclusive: 25.1 µM [inhibitor, partial curve]"},
      {"smiles": "COc1ccc(C(=O)Nc2ccccc2C(=O)NCc2cccnc2)cc1", "Potency": "inactive"},
      {"smiles": "Cc1ccc(/C=N/n2c(-c3cccc(Cl)c3)n[nH]c2=S)o1", "Potency": "inconclusive: 7.08 µM [inhibitor, partial curve, poor fit]"},
      {"smiles": "Cc1nn(C(C)c2n[nH]c(=S)n2-c2ccc(F)cc2)c(C)c1[N+](=O)[O-]", "note": "(stereo not given)", "Potency": "inconclusive: 20 µM [inhibitor, partial curve, poor fit]"},
      {"smiles": "COc1cc2cnc(-c3ccccc3)c(-c3cc(OC)c(OC)c(OC)c3)c2cc1OC", "Potency": "inactive"},
      {"smiles": "NS(=O)(=O)c1ccc(NC(=S)N2CCN(Cc3ccc4c(c3)OCO4)CC2)cc1", "Potency": "inconclusive: 14.1 µM [inhibitor, partial curve, poor fit]"},
      {"smiles": "COc1ccc(CN2C(=O)NC(=O)/C(=C\\c3cccc(OC)c3OC)C2=O)cc1", "Potency": "inconclusive: 35.5 µM [inhibitor, partial curve, poor fit]"},
      {"smiles": "N#CC(C#N)=Cc1ccc(N2CCCC2)cc1", "Potency": "inactive"},
      {"smiles": "O=C(CS(=O)(=O)c1ccc(Cl)cc1)NCc1ccccc1", "Potency": "inconclusive: 1.58 µM [inhibitor, full curve]"},
      {"smiles": "Cc1ccc2cc(C)c3nnc(SCC(=O)c4cccs4)n3c2c1C", "Potency": "inconclusive: 39.8 µM [inhibitor, partial curve]"},
      {"smiles": "CC(=O)c1ccc(S(=O)(=O)NC2CC2)cc1", "Potency": "inactive"},
      {"smiles": "CC(=O)/C(=N\\Nc1ccc(Cl)cc1Cl)Sc1nnc(-c2ccccc2)n1-c1ccccc1", "Potency": "inconclusive: 35.5 µM [inhibitor, partial curve, poor fit]"},
      {"smiles": "O=C(c1cc(-c2ccco2)nn1-c1cccc(Cl)c1)N1CCCCC1", "Potency": "active: 10 µM"},
      {"smiles": "CCn1c(=O)cc(C(F)(F)F)[nH]c1=S", "Potency": "inconclusive: 28.2 µM [inhibitor, partial curve]"},
      {"smiles": "O=C1NC(=O)C(=Cc2cc(Cl)ccc2OCc2ccc(C(=O)O)cc2)C(=O)N1", "Potency": "inconclusive: 35.5 µM [inhibitor, partial curve]"},
      {"smiles": "O=C(c1ccc2c3n(nc2c1)-c1ccccc1CO3)N1CCCCC1", "Potency": "inconclusive: 22.4 µM [inhibitor, partial curve, poor fit]"},
      {"smiles": "Cc1cccc2cc3c(N)c(C(=O)Nc4ccc(N5CCOCC5)cc4)sc3nc12", "Potency": "inactive"},
      {"smiles": "Cc1ccc(Cn2c(SCCN3CCCCC3)nc3c2c(=O)[nH]c(=O)n3C)cc1", "Potency": "inconclusive: 10 µM [inhibitor, partial curve]"},
      {"smiles": "CCCCn1c(SCC(=O)Nc2cccc(OC)c2)nc2c(sc3ccccc32)c1=O", "Potency": "inactive"},
      {"smiles": "CC(C)Cn1c(-c2ccc(F)cc2)n[nH]c1=S", "Potency": "inconclusive: 8.91 µM [inhibitor, partial curve]"},
      {"smiles": "Cc1ccc(C(=O)CC(=O)COc2ccc(Cl)cc2)cc1", "Potency": "inactive"},
      {"smiles": "O=C(Oc1ccccc1)c1cc(O)c(O)c(O)c1", "Potency": "inconclusive: 44.7 µM [inhibitor, partial curve, poor fit]"},
      {"smiles": "CCc1nnc(NC(=O)c2ccc(S(=O)(=O)N(CC)Cc3ccccc3)cc2)o1", "Potency": "inconclusive: 50.1 µM [inhibitor, single point]"},
      {"smiles": "O=C(Nc1ccc2nc(SCCOc3ccccc3)sc2c1)c1cccs1", "Potency": "inactive"},
      {"smiles": "CC(=O)Nc1cccc(N(C)S(C)(=O)=O)c1", "Potency": "inconclusive: 50.1 µM [inhibitor, single point]"},
      {"smiles": "CCCCOc1ccc(NC(=O)CCSc2nccn2C)cc1", "Potency": "inconclusive: 5.62 µM [inhibitor, partial curve]"},
      {"smiles": "c1ccc2c(Nc3nc4c(s3)CCCC4)cccc2c1", "Potency": "inconclusive: 5.62 µM [inhibitor, full curve]"},
      {"smiles": "Cc1ccc(C2=NN(C(=O)CCC(=O)O)C(c3cccs3)C2)cc1", "note": "(stereo not given)", "Potency": "inactive"},
      {"smiles": "COC(=O)c1ccc(S(=O)(=O)N2CCC(C(N)=O)CC2)n1C", "Potency": "inactive"},
      {"smiles": "COc1ccc(C/C(C)=N/NC(=S)Nc2ccccc2F)cc1", "Potency": "inconclusive: 31.6 µM [inhibitor, single point]"},
      {"smiles": "CC(C)NC(=S)NNc1nc2ccccc2s1", "Potency": "inconclusive: 7.08 µM [inhibitor, partial curve, poor fit]"},
      {"smiles": "CCOc1cccc(/C=N/N2C(=O)CSC2=S)c1O", "Potency": "inconclusive: 31.6 µM [inhibitor, partial curve]"},
      {"smiles": "Cc1ccc(CN(C)C(=O)C2CCC(=O)N(CCc3ccccc3)C2)o1", "note": "(stereo not given)", "Potency": "inconclusive: 22.4 µM [inhibitor, partial curve, poor fit]"},
      {"smiles": "CC(O)(c1ccccc1)c1nc(-c2cccc(C(F)(F)F)c2)cs1", "note": "(stereo not given)", "Potency": "inactive"},
      {"smiles": "CCN1C(=O)C(=Cc2c(C)n(CC(=O)NCC3CCCO3)c3ccccc23)C(=O)N(CC)C1=S", "note": "(stereo not given)", "Potency": "inconclusive: 39.8 µM [inhibitor, partial curve, poor fit]"}
    ]}
  ]
}
